Data reported in PubChem BioAssay (NCI).
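1) Cells in 96-well plates. 2) Compound, 48 h, 5 concentrations. 3) Linear interpolation between surrounding doses. 4) Unreached endpoint = highest concentration. The concentration for 50% growth inhibition is given as GI50. TGI: total growth inhibition.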 Calls of active or inactive are those of the source. Rule as the data show it: active = GI50 below about 0.43 µM; inactive = the rest.

The compounds below were run on NCI-H322M lung (assay: NCI anticancer screen, dose series, 48 h).

SMILES	TGI [µM]	GI50 [µM]	outcome
C=CS(=O)(=O)c1c2cc(OC)ccc2nc2ccc(OC)cc12	29.1	–	–
CC(=O)CC(O)(C(F)(F)Cl)C(F)(F)Cl	> 10	–	–
CCCc1cc2c(cc1O)CC[C@@H]1[C@@H]2CC[C@]2(C)[C@@H](O)CC[C@@H]12	31	–	–
Oc1c(-c2ccccc2)nc2ccccn12	> 100	–	–
COc1ccc(N2C(=O)CC(=O)N(C(=O)CCCCCCCCC(=O)N3C(=O)CC(=O)N(c4ccc(OC)cc4)C3=S)C2=S)cc1	> 100	–	–
COC(=O)[C@@]12CCCC(=O)[C@@H]1[C@H]1CCC[C@H]12	> 100	–	–
C=C(CN(C)C)C(=O)c1ccc(OC2OC(COC(C)=O)C(OC(C)=O)C(OC(C)=O)C2OC(C)=O)cc1 (configuration not stated)	32.6	–	–
Cc1ccc(S(=O)(=O)NC2C(=O)c3ccccc3C(=O)C2n2ccnc2)cc1 (configuration not stated)	28	–	–
CC1=C(C(=O)NNC(=O)c2ccccc2)CC(C(=O)NNC(=O)c2ccccc2)=C(C)N1	> 100	–	–
CC1=C(C(=O)Nc2cc(F)c(F)cc2F)C(c2ccc3c(c2)OCO3)C(C(=O)Nc2cc(F)c(F)cc2F)=C(C)N1	78	–	–
CC1CC(C)CN(S(=O)(=O)c2cc(Cl)c(Oc3ccc([N+](=O)[O-])cc3Cl)c(Cl)c2)C1 (configuration not stated)	> 100	–	–
CCCCCCCCCCCC(=O)c1c(O)cc(C)oc1=O	> 100	–	–
O=C1/C(=C/c2cccc([N+](=O)[O-])c2)N=C(c2ccccc2)N1c1nc2c(Cl)cc(Cl)cc2s1	> 100	–	–
N#Cc1c2nc3ccccc3nc2n2ccccc12	> 100	–	–
CN(C)C=Nc1ccc2nonc2c1	> 100	–	–
Nc1ccc2nc3n(c(=O)c2c1)CCCCC3	> 100	–	–
C/C=C(\C)C(=O)O[C@H]1C=CC(=O)O[C@H]1CC[C@H](O)[C@H](C)O	32	16.3	–
CC1=CCCC(C)(O)C2CC(CCC3(C)OC3CC1)C(C)C(=O)O2 (configuration not stated)	> 100	–	–
O=C1/C(=C/c2ccc(O)c(O)c2)COc2ccc(-c3ccccc3)cc21	13.9	3.21	–
CCC(=O)O[C@H]1CC[C@H]2[C@@H]3CCC4=CC(=O)C=C[C@]4(O)[C@H]3CC[C@]12C	> 100	–	–
NC1CCC[C@H]1O (some centres not stated)	> 100	–	–
CN1CCN(c2ccc(N3Cc4ccccc4OC4=C3C(=O)c3c(O)ccc(O)c3C4=O)cn2)CC1	5.19	1.64	–
O=C(CSc1nccc(=O)[nH]1)c1ccccc1	> 100	–	–
CCOC(=O)c1nc2ccccc2nc1Nc1ccc(Cl)c(Cl)c1	> 100	–	–
O=c1cc(-c2ccc(O)c(O)c2-c2c(O)cc3oc(-c4ccc(O)c(O)c4)cc(=O)c3c2O)oc2cc(O)cc(O)c12	–	–	inactive

SMILES	TGI [µM]	GI50 [µM]	outcome
O=C(N=Nc1ccc(Br)cc1)NNc1ccc(Br)cc1	> 100	–	–
O=C(Nc1ccccc1Cl)c1cc(S(=O)(=O)Nc2n[nH]c(=O)n2-c2ccccc2)c(S)cc1Cl	> 100	–	–
Oc1c(C(O)c2ccccn2)ccc2ccccc12 (configuration not stated)	> 100	–	–
Cc1ccc(C(N)=Nc2ccccc2)cc1	> 100	–	–
CCOc1ccc2nc(S/C(=C/C=C(C#N)C#N)c3ccc(Cl)cc3)sc2c1	35.1	17.4	–
Nc1ccc2c(c1)S(=O)(=O)c1cc(O)ccc1O2	> 100	–	–
CN1C(=O)/C(=C/c2c(Cl)[nH]c3ccccc23)c2ccccc21	74.1	22.5	–
CC(=O)CC(=O)Nc1c(C)[c]([Hg][O]C(C)=O)c(C)[c]([Hg][O]C(C)=O)[c]1[Hg][O]C(C)=O	30.5	16.8	–
CC(C)OC(=O)c1ccc(CCc2cc(O)c(Br)cc2O)cc1	61.5	–	–
CS(=O)(=O)Nc1ccc(Nc2c3ccccc3nc3cc(N)ccc23)cc1	42.5	6.03	–
O=c1cc(-c2ccccc2)[nH]c2ccc(N3CCCCC3)cc12	> 100	–	–
CCOC(=O)C1C(=O)CC(O)(c2ccccc2)C(C(=O)OCC)C1c1ccc(N(C)C)cc1 (configuration not stated)	> 100	–	–
COc1ccc(N2C(=O)C3c4[nH]c5ccc(C)cc5c4C4CCC(c5ccccc5)CC4C3C2=O)cc1 (configuration not stated)	> 100	–	–
CC(=O)N1N=C(c2cc(C)ccc2O)CC1c1cccc(Cl)c1 (configuration not stated)	> 100	–	–
O=C1CC[C@@]2(O)[C@H]3Cc4ccc(-c5cccc(O)c5)c5c4[C@@]2(CCN3CC2CC2)[C@H]1O5	> 100	–	–
CCN(CC)CCOc1nc2c3ccc(Cl)cc3nn2c2ccccc12	7.44	2.19	–
Cc1cc(C)c(C2CC(O)C(CO)O2)cc1C (configuration not stated)	> 100	–	–
Cc1cnc(Cl)nc1C(C#N)c1nc2ccccc2s1 (configuration not stated)	65.6	–	–
CCOc1ccc(NC(=O)C(=O)C2C(=O)Nc3ccccc3S2=O)cc1 (configuration not stated)	> 100	–	–
CC1=CC(=O)C(=C(C)C)CC1	> 100	–	–
Nc1cc(N)c2nc(-c3ccccc3)c(Sc3ccc(Cl)c(Cl)c3)nc2c1	35.6	7.1	–
C[N+](C)(C)CC(=O)N/N=C(/Cc1nc2ccc(Cl)cc2[nH]c1=O)C1=NS(=O)(=O)c2cc(S(N)(=O)=O)c(Cl)cc2N1	> 100	–	–
Cc1c(C(=O)O)nc(/C=C/C(=O)O)[nH]c1=O	> 100	–	–
COS(=O)(=O)OCCC(NC(=O)OCc1ccccc1)C(=O)OCc1ccccc1 (configuration not stated)	> 100	–	–
Cc1ccc2nc(-n3c(/C=C/c4ccccc4O)nc4ccccc4c3=O)sc2c1	> 100	–	–

SMILES	TGI [µM]	GI50 [µM]	outcome
O=c1c(O)c(-c2ccccc2)n(O)c2ccc(Cl)cc12	> 100	–	–
CC(C)=CCC/C(C)=C\CC/C(C)=C/CO	> 100	–	–
CCOC(=O)C1N(S(=O)(=O)c2ccc(C)cc2)CCC12c1ccccc1NC2c1ccc(OC)c(OC)c1 (configuration not stated)	> 100	–	–
CNc1cc(OCc2ccccc2)c(OC)cc1C(=O)N1CCC[C@H]1CO	> 100	–	–
CCCCCC(=O)N[C@H]1CCc2cc(OC)c(OC)c(OC)c2-c2ccc(SC)c(=O)cc21	> 100	–	–
O=C(COc1cccc(/C=C2/Oc3ccccc3C2=O)c1)Nc1nccs1	> 100	38.5	–
Nc1nc(=S)c2c(ncn2CC(O)CO)[nH]1 (configuration not stated)	> 100	–	–
O=C(CN1CCN(c2ccccc2)CC1)c1ccc2[nH]c(=O)oc2c1	> 100	–	–
CC(=O)N(C)c1ccc2ncccc2c1[N+](=O)[O-]	> 100	–	–
CC1=C(C)C(=O)C2=C(OCCO2)C1=O	31.8	–	–
S=c1[nH]n2c(Cc3ccccc3)nnc2s1	> 100	–	–
CN1C(=O)N(C)C2C1NN=c1s/c(=C\c3ccccc3F)c(=O)n12 (configuration not stated)	> 100	0.705	–
CCCCCCCc1c(Cl)nc(Cl)nc1Cl	20.1	–	–
COc1ccc2c(c1)OCC1c3cc(O)ccc3OC21 (configuration not stated)	> 100	> 100	–
Nc1ccn([C@@H]2O[C@H](COP(=O)(O)O[C@@H]3C[C@H](n4cc(F)c(=O)[nH]c4=O)O[C@@H]3COP(=O)(O)O[C@@H]3C[C@H](n4cc(F)c(=O)[nH]c4=O)O[C@@H]3COP(=O)(O)O[C@@H]3C[C@H](n4cc(F)c(=O)[nH]c4=O)O[C@@H]3COP(=O)(O)O[C@@H]3C[C@H](n4cc(F)c(=O)[nH]c4=O)O[C@@H]3COP(=O)(O)O[C@@H]3C[C@H](n4cc(F)c(=O)[nH]c4=O)O[C@@H]3COP(=O)(O)O[C@@H]3C[C@H](n4cc(F)c(=O)[nH]c4=O)O[C@@H]3COP(=O)(O)O[C@@H]3C[C@H](n4cc(F)c(=O)[nH]c4=O)O[C@@H]3COP(=O)(O)O[C@@H]3C[C@H](n4cc(F)c(=O)[nH]c4=O)O[C@@H]3COP(=O)(O)O[C@@H]3C[C@H](n4cc(F)c(=O)[nH]c4=O)O[C@@H]3COP(=O)(O)O[C@@H]3C[C@H](n4cc(F)c(=O)[nH]c4=O)O[C@@H]3COP(=O)(O)OCCOCCOCCOCCOCCOCCO)[C@H](O)C2O)c(=O)n1 (some centres not stated)	> 100	> 100	–
COc1ccc(-c2nc3ccccc3c(=O)[nH]2)c(OC)c1	> 100	–	–
NCCCCCCn1c2c(c3ccccc3c1=O)C(=O)c1ccccc1-2	17.5	4.11	–
COc1ccc2nccc(NCCCN3CCN(CCCNc4ccnc5ccc(OC)cc45)CC3)c2c1	4.74	–	–
C=CCCCC(C#N)(c1ccccc1)N1CCCC1 (configuration not stated)	> 100	–	–
CC(C)(OCc1ccccc1)c1ccccc1P(c1ccccc1)c1ccccc1	> 100	–	–
Cc1ccc(NC(=O)C(=O)C(C2C(C)CC(=O)C2CC(=O)O)[N+](=O)[O-])cc1 (configuration not stated)	> 100	–	–
CC#CC(OCC)(OCC)OCC	> 100	–	–
COc1ccc2nc3c([N+](=O)[O-])ccc4c3c(c2c1)N(CCCN(C)C)C(=S)N4CCCN(C)C	19.4	–	–
CC(C)CCC[C@@H](C)[C@H]1CCC2C3=CCn4c(=O)ccc(=O)n4C3CC[C@@]21C (some centres not stated)	2.65	1.27	–
Cc1occc(=O)c1O	> 100	–	–

SMILES	TGI [µM]	GI50 [µM]	outcome
CCC1=C(C)c2cc3[n-]c(cc4nc(c(C=O)c5[n-]c(cc1n2)c(C)c5CC)C(C)=C4CC)c(C)c3CC.[Ni+2]	> 100	> 100	–
[Co+2].[O-]c1ccccc1C=NCc1ccccc1.[O-]c1ccccc1C=NCc1ccccc1	> 100	24.8	–
Brc1ccc2[nH]cc([C@H]3CN[C@@H](c4c[nH]c5ccc(Br)cc45)CN3)c2c1	10.2	–	–
CC[N+](CC)(CC)Cc1cc2ccccc2n1C(=O)OC	> 100	–	–
O=C(CCN1CCCCC1)Nc1ccc2sc3ccccc3c(=O)c2n1	50.1	–	–
O=c1c2c([nH]c3cc4c(cc13)OCO4)-c1ccccc1C2	> 100	–	–
COC1=CC(=C(C#N)C(=Nc2ccccc2)SC)C=C(OC)C1=O	> 100	–	–
CN(C)C(=O)Nc1c([N+](=O)[O-])cc(C(F)(F)F)cc1[N+](=O)[O-]	> 100	–	–
Cc1coc2c1[C@@H](O)[C@@]1(C)[C@H](CCC[C@@H]1C)C2	> 100	–	–
CN(CC(=O)O)S(=O)(=O)c1ccc(F)cc1	> 100	–	–
COc1ccc2c(c1)CCC1C2CCC2(C)C3=CC(O)CCC3CC12 (configuration not stated)	31	16.9	–
Cc1nnc(N)nc1/C=C\c1ccc(N(C)C)cc1	> 100	–	–
CNC(=S)N/N=C(\C)c1cc(OC)ccc1O	> 100	–	–
C=C(CN(C)C)C1(c2ccccc2)CC2(CCCC2)C(=O)O1 (configuration not stated)	> 100	–	–
COc1cc(/C=C/c2ccc(/C=C/c3cc(OC)c(OC)c(OC)c3)cc2)cc(OC)c1OC	> 80.8	–	–
CCc1nnc(CC)n1-n1c(Cc2ccccc2)n[nH]c1=O	> 100	–	–
O=C1Cc2c([nH]c3ccc([N+](=O)[O-])cc23)-c2ccccc2N1	9.37	–	–
CCOC(=O)c1ccc2[nH]c(O)c(C(=Nc3ccc(N(C)C(=O)CN4CCN(C)CC4)cc3)c3ccccc3)c2c1	4.14	1.44	–
C[C@]12Cc3cn[nH]c3C(=O)C1CC[C@@H]1C2CC[C@@]2(C)C1CC[C@]2(C)O (some centres not stated)	> 100	–	–
Clc1ccc(N2CCN(CCCN3CCN(c4cccc(Cl)c4)CC3)CC2)cc1	33.6	12.1	–
S=C(N/N=C/c1ccccc1)NC12CC3CC(CC(C3)C1)C2	> 100	–	–
COCCCN(Cc1cc(OC)c(OC)c(OC)c1)C(=S)Nc1cccc(Cl)c1	> 100	–	–
